Assay results taken from the supplement of paper PMC8728848.
The other results are listed elsewhere or left out.

Key:
Experiment in all cases: glycan array binding signal (z-score within array); higher = stronger binding
Conditions in all cases: glycan notation: IUPAC condensed, linker removed
[1] = biological target: GlcNAc(b1-3)Gal(b1-4)GlcNAc(b1-3)Gal(b1-4)GlcNAc
In short: (§1)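 Arrays were curated from the Consortium for Functional Glycomics database, 3228 in total, and kept only where the protein sequence was available. Binding is expressed as a within-array Z-score. This score was averaged across arrays of the same protein sequence at different concentrations or buffers and across linkers, and negative values can be read as non-binding.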

GlcNAc(b1-3)GalNAc = biological target: GlcNAc(b1-3)GalNAc
In short: as §1

GlcNAc(b1-3)Man = biological target: GlcNAc(b1-3)Man
In short: as §1

[2] = biological target: GlcNAc(b1-3)[GlcNAc(b1-4)][GlcNAc(b1-6)]GlcNAc
In short: as §1

[3] = biological target: GlcNAc(b1-3)[GlcNAc(b1-6)]Gal(b1-4)GlcNAc
In short: as §1

[4] = biological target: GlcNAc(b1-3)[GlcNAc(b1-6)]GalNAc
In short: as §1

[5] = biological target: GlcNAc(b1-4)Gal(b1-4)GlcNAc
In short: as §1

GlcNAc(b1-4)GlcNAc = biological target: GlcNAc(b1-4)GlcNAc
In short: as §1

[6] = biological target: GlcNAc(b1-4)GlcNAc(b1-4)GlcNAc
In short: as §1

[7] = biological target: GlcNAc(b1-4)GlcNAc(b1-4)GlcNAc(b1-4)GlcNAc(b1-4)GlcNAc
In short: as §1

[8] = biological target: GlcNAc(b1-4)GlcNAc(b1-4)GlcNAc(b1-4)GlcNAc(b1-4)GlcNAc(b1-4)GlcNAc
In short: as §1

[9] = biological target: GlcNAc(b1-4)[GlcNAc(b1-6)]GalNAc
In short: as §1

[10] = biological target: GlcNAc(b1-6)Gal(b1-4)GlcNAc
In short: as §1

GlcNAc(b1-6)GalNAc = biological target: GlcNAc(b1-6)GalNAc
In short: as §1

GlcNAc3Prop(b1-4)GlcNAc = biological target: GlcNAc3Prop(b1-4)GlcNAc
In short: as §1

[11] = biological target: GlcNAc6S(b1-3)Gal(b1-4)GlcNAc
In short: as §1

Kdn(a2-3)Gal(b1-3)GalNAc = biological target: Kdn(a2-3)Gal(b1-3)GalNAc
In short: as §1

Kdn(a2-3)Gal(b1-3)GlcNAc = biological target: Kdn(a2-3)Gal(b1-3)GlcNAc
In short: as §1

Kdn(a2-3)Gal(b1-4)Glc = biological target: Kdn(a2-3)Gal(b1-4)Glc
In short: as §1

Kdn(a2-3)Gal(b1-4)GlcNAc = biological target: Kdn(a2-3)Gal(b1-4)GlcNAc
In short: as §1

[12] = biological target: Kdn(a2-3)Gal(b1-4)[Fuc(a1-3)]GlcNAc
In short: as §1

Kdn(a2-6)Gal(b1-4)GlcNAc = biological target: Kdn(a2-6)Gal(b1-4)GlcNAc
In short: as §1

[13] = biological target: Man(a1-2)Man(a1-2)Man(a1-3)Man
In short: as §1

[14] = biological target: Man(a1-2)Man(a1-2)Man(a1-6)[Man(a1-3)]Man
In short: as §1

Man(a1-2)Man(a1-3)Man = biological target: Man(a1-2)Man(a1-3)Man
In short: as §1

[15] = biological target: Man(a1-2)Man(a1-3)[Man(a1-2)Man(a1-6)]Man
In short: as §1

[16] = biological target: Man(a1-2)Man(a1-3)[Man(a1-2)Man(a1-6)]Man(a1-6)[Man(a1-2)Man(a1-2)Man(a1-3)]Man
In short: as §1

[17] = biological target: Man(a1-2)Man(a1-3)[Man(a1-2)Man(a1-6)]Man(a1-6)[Man(a1-2)Man(a1-2)Man(a1-3)]Man(b1-4)GlcNAc(b1-4)GlcNAc
In short: as §1

[18] = biological target: Man(a1-2)Man(a1-3)[Man(a1-6)]Man(a1-6)[Man(a1-2)Man(a1-3)]Man(b1-4)GlcNAc(b1-4)GlcNAc
In short: as §1

[19] = biological target: Man(a1-2)Man(a1-6)[Man(a1-3)]Man(a1-6)[Man(a1-2)Man(a1-2)Man(a1-3)]Man
In short: as §1

[20] = biological target: Man(a1-2)Man(a1-6)[Man(a1-3)]Man(a1-6)[Man(a1-2)Man(a1-2)Man(a1-3)]Man(b1-4)GlcNAc(b1-4)GlcNAc
In short: as §1

Man(a1-3)[Man(a1-6)]Man = biological target: Man(a1-3)[Man(a1-6)]Man
In short: as §1

[21] = biological target: Man(a1-3)[Man(a1-6)]Man(a1-6)[Man(a1-2)Man(a1-3)]Man(b1-4)GlcNAc(b1-4)GlcNAc
In short: as §1

[22] = biological target: Man(a1-3)[Man(a1-6)]Man(a1-6)[Man(a1-3)]Man
In short: as §1

[23] = biological target: Man(a1-3)[Man(a1-6)]Man(a1-6)[Man(a1-3)]Man(b1-4)GlcNAc(b1-4)GlcNAc
In short: as §1

[24] = biological target: Man(a1-3)[Man(a1-6)]Man(b1-4)GlcNAc(b1-4)GlcNAc
In short: as §1

Man(a1-6)Man = biological target: Man(a1-6)Man
In short: as §1

Man(b1-4)GlcNAc = biological target: Man(b1-4)GlcNAc
In short: as §1

Neu5Ac(a2-3)Gal = biological target: Neu5Ac(a2-3)Gal
In short: as §1

[25] = biological target: Neu5Ac(a2-3)Gal(b1-3)GalNAc
In short: as §1

[26] = biological target: Neu5Ac(a2-3)Gal(b1-3)GalNAc(b1-3)Gal(a1-4)Gal(b1-4)Glc
In short: as §1

[27] = biological target: Neu5Ac(a2-3)Gal(b1-3)GalNAc(b1-4)[Neu5Ac(a2-3)]Gal(b1-4)Glc
In short: as §1

[28] = biological target: Neu5Ac(a2-3)Gal(b1-3)GalNAc6S
In short: as §1

[29] = biological target: Neu5Ac(a2-3)Gal(b1-3)GlcNAc
In short: as §1

[30] = biological target: Neu5Ac(a2-3)Gal(b1-3)GlcNAc(b1-2)Man(a1-3)[Neu5Ac(a2-3)Gal(b1-3)GlcNAc(b1-2)Man(a1-6)]Man(b1-4)GlcNAc(b1-4)GlcNAc
In short: as §1

B1: Galatrox (Botrops atrox), P0DM53 (protein)
chain: NNCPQDWLPMNGLCYKIFDELKAWKDAEMFCRKYKPGCHLASIILYGESPEWAEGHSEVWLGLWDKKKDFSWEWTDR
**Q.** B1 was tested. Which “glycan array binding signal (z-score)” value [1] did it give?
**A.** The value was -0.259.

**Q.** And the “glycan array binding signal (z-score)” value (GlcNAc(b1-3)GalNAc)?
**A.** The value was -0.375.

**Q.** What about the “glycan array binding signal (z-score)” value (GlcNAc(b1-3)Man) of the same binder?
**A.** Its value is -0.36.

**Q.** What about the “glycan array binding signal (z-score)” value [2] of the same binder?
**A.** The value was -0.347.

**Q.** And the “glycan array binding signal (z-score)” value [3]?
**A.** The value was -0.354.

**Q.** What about the “glycan array binding signal (z-score)” value [4] of the same binder?
**A.** Its value is -0.367.

**Q.** What about the “glycan array binding signal (z-score)” value [5] of the same binder?
**A.** The value was -0.366.

**Q.** What about the “glycan array binding signal (z-score)” value (GlcNAc(b1-4)GlcNAc) of the same binder?
**A.** The value was -0.367.

**Q.** And the “glycan array binding signal (z-score)” value [6]?
**A.** The value was -0.354.

**Q.** And the “glycan array binding signal (z-score)” value [7]?
**A.** Its value is -0.373.

**Q.** What about the “glycan array binding signal (z-score)” value [8] of the same binder?
**A.** Its value is -0.362.

**Q.** What about the “glycan array binding signal (z-score)” value [9] of the same binder?
**A.** Its value is -0.376.

**Q.** What about the “glycan array binding signal (z-score)” value [10] of the same binder?
**A.** Its value is 0.654.

**Q.** And the “glycan array binding signal (z-score)” value (GlcNAc(b1-6)GalNAc)?
**A.** The value was -0.107.

**Q.** And the “glycan array binding signal (z-score)” value (GlcNAc3Prop(b1-4)GlcNAc)?
**A.** The value was -0.371.

**Q.** What about the “glycan array binding signal (z-score)” value [11] of the same binder?
**A.** Its value is 3.08.

**Q.** And the “glycan array binding signal (z-score)” value (Kdn(a2-3)Gal(b1-3)GalNAc)?
**A.** The value was -0.329.

**Q.** And the “glycan array binding signal (z-score)” value (Kdn(a2-3)Gal(b1-3)GlcNAc)?
**A.** Its value is -0.351.

**Q.** What about the “glycan array binding signal (z-score)” value (Kdn(a2-3)Gal(b1-4)Glc) of the same binder?
**A.** The value was -0.364.

**Q.** And the “glycan array binding signal (z-score)” value (Kdn(a2-3)Gal(b1-4)GlcNAc)?
**A.** Its value is -0.356.

**Q.** And the “glycan array binding signal (z-score)” value [12]?
**A.** Its value is -0.363.

**Q.** What about the “glycan array binding signal (z-score)” value (Kdn(a2-6)Gal(b1-4)GlcNAc) of the same binder?
**A.** Its value is 0.063.

**Q.** And the “glycan array binding signal (z-score)” value [13]?
**A.** The value was -0.366.

**Q.** And the “glycan array binding signal (z-score)” value [14]?
**A.** The value was -0.362.

**Q.** And the “glycan array binding signal (z-score)” value (Man(a1-2)Man(a1-3)Man)?
**A.** The value was -0.364.

**Q.** And the “glycan array binding signal (z-score)” value [15]?
**A.** Its value is -0.378.

**Q.** And the “glycan array binding signal (z-score)” value [16]?
**A.** Its value is -0.369.

**Q.** What about the “glycan array binding signal (z-score)” value [17] of the same binder?
**A.** The value was -0.38.

**Q.** What about the “glycan array binding signal (z-score)” value [18] of the same binder?
**A.** The value was -0.368.

**Q.** And the “glycan array binding signal (z-score)” value [19]?
**A.** Its value is -0.368.

**Q.** What about the “glycan array binding signal (z-score)” value [20] of the same binder?
**A.** Its value is -0.212.

**Q.** What about the “glycan array binding signal (z-score)” value (Man(a1-3)[Man(a1-6)]Man) of the same binder?
**A.** Its value is -0.371.

**Q.** What about the “glycan array binding signal (z-score)” value [21] of the same binder?
**A.** Its value is -0.056.

**Q.** And the “glycan array binding signal (z-score)” value [22]?
**A.** Its value is -0.361.

**Q.** What about the “glycan array binding signal (z-score)” value [23] of the same binder?
**A.** The value was -0.37.

**Q.** And the “glycan array binding signal (z-score)” value [24]?
**A.** Its value is -0.35.

**Q.** And the “glycan array binding signal (z-score)” value (Man(a1-6)Man)?
**A.** Its value is -0.369.

**Q.** And the “glycan array binding signal (z-score)” value (Man(b1-4)GlcNAc)?
**A.** Its value is -0.36.

**Q.** What about the “glycan array binding signal (z-score)” value (Neu5Ac(a2-3)Gal) of the same binder?
**A.** Its value is -0.363.

**Q.** What about the “glycan array binding signal (z-score)” value [25] of the same binder?
**A.** Its value is -0.365.

**Q.** And the “glycan array binding signal (z-score)” value [26]?
**A.** Its value is -0.344.

**Q.** What about the “glycan array binding signal (z-score)” value [27] of the same binder?
**A.** Its value is -0.325.

**Q.** What about the “glycan array binding signal (z-score)” value [28] of the same binder?
**A.** The value was -0.361.

**Q.** And the “glycan array binding signal (z-score)” value [29]?
**A.** The value was -0.362.

**Q.** What about the “glycan array binding signal (z-score)” value [30] of the same binder?
**A.** The value was -0.363.
